# Source: PubChem BioAssay (Tox21)
# “And” between values parts separate entries of the source, which are not always exact repeats. Equal entries are not always repeated. The shares of active, inactive and inconclusive entries below differ from those in the screen. Potencies of inconclusive entries are doubtful fits and often do not repeat. The source holds several records for some structures; these can differ, active in one and inactive in another. The source made the active and inactive calls. Unless noted, calls follow the shape of the dose curve; as a rule, active = well fitted curve in the direction sought with a large enough effect in the repeat runs; inconclusive = weak or mixed curves; inactive = no such curve, though single readings can be large; an effect the other way counts as inactive or inconclusive.
# Legend:
# [1] = qHTS assay to identify aromatase inhibitors - cell viability counter screen (AID 743084); settings: MCF-7 aro ERE viability, CellTiter-Fluor, 24 h; activity change, negative = cytotoxicity: at 70.3 µM (top of the series);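 also: cells stimulated with testosterone during compound exposure; nearly all actives have a fitted effect of over 55% in size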; as to activity change, negative = cytotoxicity: % is scaled to controls: 0 for no effect and ±100 for the full control effect
# [2] = molecular target: Peroxisome proliferator-activated receptor gamma (Homo sapiens) (UniProt P37231); test: qHTS assay to identify small molecule agonists of the peroxisome proliferator-activated receptor gamma (PPARg) signaling pathway (AID 743094; active = well fitted activation curve with a large enough effect in the signal ratio in the repeat runs, not every such curve was filed as active; inconclusive = weak or mixed curves, or effect the other way; inactive = no such curve, though single readings can be large or run the other way; the % refers to the signal ratio; as to activation: % is scaled to controls: 0 for no effect and ±100 for the full control effect); settings: HEK293H PPARg-UAS-bla, beta-lactamase FRET ratio, 17 h; activation: at 57 µM (top of the series) unless noted
# Procedure, shortened: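 GeneBLAzer PPARg UAS-bla HEK293H cells carrying a stably integrated beta-lactamase reporter were pre-incubated 5 h at 37C, then exposed to compounds in DMSO for 17 h at 37C; LiveBLAzer B/G FRET substrate was added for 1 h at room temperature and fluorescence read.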
# [3] = molecular target: Peroxisome proliferator-activated receptor gamma (Homo sapiens) (UniProt P37231); test: qHTS assay to identify small molecule antagonists of the peroxisome proliferator-activated receptor gamma (PPARg) signaling pathway (AID 743191; calls by dose curve; also: nearly all actives have a fitted effect of over 30% in size); settings: HEK293H PPARg-UAS-bla, beta-lactamase ratio, antagonist, 17 h
# Procedure, shortened: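 GeneBLAzer PPARg UAS-bla HEK293H cells carrying a UAS-driven beta-lactamase reporter were plated at 3000 cells/well, preincubated 5 h at 37C, then given compound for 17 h at 37C; LiveBLAzer B/G FRET substrate was read after 1 h at room temperature.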
# [4] = qHTS assay for small molecule agonists of the antioxidant response element (ARE) signaling pathway (AID 743202; active = well fitted activation curve with a large enough effect in the signal ratio in the repeat runs, not every such curve was filed as active; inconclusive = weak or mixed curves, or effect the other way; inactive = no such curve, though single readings can be large or run the other way; the % refers to the signal ratio); settings: HepG2 ARE-bla reporter, beta-lactamase FRET, 16 h; activation: at 73.3 µM (top of the series) unless noted
# Procedure, shortened: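 Compounds delivered in DMSO to ARE-bla HepG2 cells (2,000 cells/well, pre-incubated 5 h) and left 16 h at 37 C. LiveBLAzer B/G FRET substrate then added for 2 h at RT before fluorescence reading.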
# [5] = qHTS assay for small molecule activators of the heat shock response signaling pathway - cell viability counter screen (AID 743209); settings: HSE-bla HeLa viability, CellTiter-Glo luminescence, 5 h; activity change, negative = cytotoxicity: at 62.6 µM (top of the series); also: nearly all actives have a fitted effect of over 50% in size
# Procedure, shortened: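 CellSensor HSE-bla HeLa cells, plated overnight at 37 C/5% CO2, were exposed to compounds in DMSO for 5 h at 37 C. Viability was then read in the same wells by CellTiter-Glo luminescence after 30 min at room temperature.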
# [6] = molecular target: Peroxisome proliferator-activated receptor delta (Homo sapiens) (UniProt Q03181); test: qHTS assay to identify small molecule agonists of the peroxisome proliferator-activated receptor delta (PPARd) signaling pathway (AID 743212; calls by dose curve; as to activation: % is scaled to controls: 0 for no effect and ±100 for the full control effect); settings: HEK293H PPARd-UAS-bla, beta-lactamase FRET ratio, 17 h; activation: at 62.6 µM (top of the series) unless noted
# Procedure, shortened: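 A PPARd-bla HEK293H line with beta-lactamase under an Upstream Activator Sequence is treated with compounds at 37 C. Substrate loading for 2 h at room temperature precedes the fluorescence measurement.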
# [7] = qHTS assay for small molecule activators of the heat shock response signaling pathway (AID 743210; active = well fitted activation curve with a large enough effect in the signal ratio in the repeat runs, with a control signal flat, not every such curve was filed as active; inconclusive = weak or mixed curves; the % refers to the signal ratio); settings: HeLa HSE-bla reporter, beta-lactamase ratio, 5 h; activation: at 62.6 µM (top of the series)
# Procedure, shortened: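 Reporter gene assay: HeLa cells stably bearing an HSE-bla construct, compound treatment 5 h at 37 C, LiveBLAzer substrate 2.5 h at RT, fluorescence intensity.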
# [8] = qHTS assay to identify small molecule agonists of the peroxisome proliferator-activated receptor delta (PPARd) signaling pathway - cell viability counter screen (AID 743211); settings: PPARd-bla HEK293H viability, CellTiter-Glo luminescence, 17 h; activity change, negative = cytotoxicity: at 62.6 µM (top of the series); also: nearly all actives have a fitted effect of over 55% in size
# Procedure, shortened: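 Viability was measured as CellTiter-Glo luminescence (30 min, room temperature) in the same wells as the beta-lactamase readout. GeneBLAzer PPARd UAS-bla HEK293H cells received compound after 5 h plating and were incubated 17 h at 37 C.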
# [9] = qHTS assay to identify small molecule antagonists of the peroxisome proliferator-activated receptor delta (PPARd) signaling pathway - cell viability counter screen (AID 743213); settings: PPARd-bla HEK293H viability, CellTiter-Glo luminescence, 17 h; viability change, negative = cytotoxic: at 62 µM (top of the series) unless noted; also: nearly all actives have a fitted effect of over 50% in size
# Procedure, shortened: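 PPARd-bla HEK293H cells (3000/well) got compound plus 300 nM L165041 agonist for 17 h at 37 C. Viability in the same wells came from CellTiter-Glo luminescence after 30 min at room temperature.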
# [10] = molecular target: Peroxisome proliferator-activated receptor delta (Homo sapiens) (UniProt Q03181); test: qHTS assay to identify small molecule antagonists of the peroxisome proliferator-activated receptor delta (PPARd) signaling pathway (AID 743215; active = well fitted inhibition curve with a large enough effect in the signal ratio in the repeat runs, not every such curve was filed as active; inconclusive = weak or mixed curves, or effect the other way; inactive = no such curve, though single readings can be large or run the other way; the % refers to the signal ratio;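 also: cells stimulated with agonist L165041 at 300 nM final during compound exposure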); settings: HEK293H PPARd-UAS-bla, beta-lactamase FRET ratio, antagonist, 17 h; ratio activity, negative = inhibition: at 62 µM (top of the series) unless noted
# Procedure, shortened: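 PPARd UAS-bla HEK293H cells were pre-incubated 5 h at 37 C, then given test compounds in DMSO plus agonist L165041 (300 nM final). After 17 h at 37 C, beta-lactamase FRET substrate was added; fluorescence read after 2 h at room temperature.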
# [11] = molecular target: Bile acid receptor (Homo sapiens) (UniProt Q96RI1); test: qHTS assay to identify small molecule antagonists of the farnesoid-X-receptor (FXR) signaling pathway (AID 743217; active = well fitted inhibition curve with a large enough effect in the signal ratio in the repeat runs, not every such curve was filed as active; inconclusive = weak or mixed curves, or effect the other way; inactive = no such curve, though single readings can be large or run the other way; the % refers to the signal ratio); settings: HEK293T FXR-UAS-bla, beta-lactamase ratio, CDCA-stimulated, 16 h; activity change, negative = inhibition: at 62.6 µM (top of the series) unless noted
# Procedure, shortened: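 FXR-UAS-bla HEK 293T cells pre-incubated 5 h at 37 °C, then exposed to compounds with chenodeoxycholic acid (50 uM final) for 16 h at 37 °C. Beta-lactamase reporter read by LiveBLAzer B/G FRET substrate fluorescence after 2 h at room temperature.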
# [12] = molecular target: Bile acid receptor (Homo sapiens) (UniProt Q96RI1); test: qHTS assay to identify small molecule agonists of the farnesoid-X-receptor (FXR) signaling pathway (AID 743220; active = well fitted activation curve with a large enough effect in the signal ratio in the repeat runs, not every such curve was filed as active; inconclusive = weak or mixed curves, or effect the other way; the % refers to the signal ratio); settings: HEK293T FXR-UAS-bla, beta-lactamase FRET ratio, 16 h; activation: at 62.6 µM (top of the series) unless noted
# Procedure, shortened: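 Beta-lactamase reporter under UAS control in GeneBLAzer FXR HEK 293T cells (5000/well) measured with LiveBLAzer FRET substrate after 2 h at room temperature. Compound exposure lasted 16 h at 37C.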
# [13] = qHTS assay to identify small molecule antagonists of the farnesoid-X-receptor (FXR) signaling pathway - cell viability counter screen (AID 743221; active = well fitted cell-killing curve with a large enough effect in the repeat runs, not every such curve was filed as active; inconclusive = weak or mixed curves, or effect the other way; inactive = no such curve, though single readings can be large or run the other way; also: nearly all actives have a fitted effect of over 50% in size); settings: FXR-bla HEK293T viability, CellTiter-Glo luminescence, 16 h; activity change, negative = cytotoxicity: at 62.6 µM (top of the series)
# Procedure, shortened: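 Cytotoxicity counter screen run in the FXR-bla reporter wells: HEK 293T cells exposed to compound with 50 uM (final) chenodeoxycholic acid for 16 h, 37 C, then viability measured by CellTiter-Glo luminescence after 30 min, room temperature.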
# [14] = molecular target: Vitamin D3 receptor (Homo sapiens) (UniProt P11473); test: qHTS assay to identify small molecule agonists of the vitamin D receptor (VDR) signaling pathway (AID 743222; calls by dose curve); settings: HEK293T VDR-UAS-bla, beta-lactamase FRET ratio, 16 h; activation: at 63.5 µM (top of the series) unless noted
# Procedure, shortened: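 VDR-bla cells were plated 4 h at 37C/5% CO2, then exposed to compounds in DMSO for 16 h. After LiveBLAzer B/G FRET substrate addition and 2 h at room temperature, beta-lactamase reporter fluorescence was read.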
# [15] = molecular target: Vitamin D3 receptor (Homo sapiens) (UniProt P11473); test: qHTS assay to identify small molecule antagonists of the vitamin D receptor (VDR) signaling pathway (AID 743223; active = well fitted inhibition curve with a large enough effect in the signal ratio in the repeat runs, not every such curve was filed as active; inconclusive = weak or mixed curves, or effect the other way; inactive = no such curve, though single readings can be large or run the other way; the % refers to the signal ratio; as to activity change, negative = inhibition: % is scaled to controls: 0 for no effect and ±100 for the full control effect); settings: VDR-UAS-bla HEK293T, beta-lactamase FRET ratio, 16 h
# Procedure, shortened: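 Antagonist mode: compound added to VDR-bla cells alongside agonist 1alpha,25-dihydroxyvitamin D3 (3 nM final), incubation 16 h at 37C. Read-out is LiveBLAzer FRET fluorescence, 2 h at room temperature.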
# [16] = qHTS assay to identify small molecule antagonists of the peroxisome proliferator-activated receptor gamma (PPARg) signaling pathway - cell viability counter screen (AID 743194); settings: PPARg-bla HEK293H viability, CellTiter-Glo luminescence, 17 h, co-treated with 50 nM rosiglitazone; activity change, negative = cytotoxicity: at 62.6 µM (top of the series); also: nearly all actives have a fitted effect of over 55% in size
# Procedure, shortened: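 PPARg-UAS-bla HEK293H cells were plated, rested 5 h at 37 C, then treated with compounds plus rosiglitazone (50 nM final) for 17 h at 37 C; viability was then read by CellTiter-Glo luminescence after 30 min at room temperature.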
# [17] = qHTS assay to identify small molecule agonists of the farnesoid-X-receptor (FXR) signaling pathway - cell viability counter screen (AID 743218); settings: FXR-bla HEK293T viability, CellTiter-Glo luminescence, 16 h; viability change, negative = cytotoxic: at 62.6 µM (top of the series) unless noted; also: nearly all actives have a fitted effect of over 45% in size
# Procedure, shortened: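 FXR-UAS-bla HEK 293T cells, plated 5 h at 37 C, were exposed to compounds for 16 h at 37 C. CellTiter-Glo was then added to the same wells as the bla readout; luminescence read after 30 min at room temperature.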
# [18] = ratio activity, negative = inhibition: at 62.6 µM (top of the series) unless noted
# [19] = activity change, negative = inhibition: at 61 µM (top of the series) unless noted
# Potency is read from the fitted curve at half-maximal effect; tags tell the direction and shape of the fitted curve or compound fluorescence and quenching.
# Chain of UniProt P11473 (P11473 whole entry, looked up): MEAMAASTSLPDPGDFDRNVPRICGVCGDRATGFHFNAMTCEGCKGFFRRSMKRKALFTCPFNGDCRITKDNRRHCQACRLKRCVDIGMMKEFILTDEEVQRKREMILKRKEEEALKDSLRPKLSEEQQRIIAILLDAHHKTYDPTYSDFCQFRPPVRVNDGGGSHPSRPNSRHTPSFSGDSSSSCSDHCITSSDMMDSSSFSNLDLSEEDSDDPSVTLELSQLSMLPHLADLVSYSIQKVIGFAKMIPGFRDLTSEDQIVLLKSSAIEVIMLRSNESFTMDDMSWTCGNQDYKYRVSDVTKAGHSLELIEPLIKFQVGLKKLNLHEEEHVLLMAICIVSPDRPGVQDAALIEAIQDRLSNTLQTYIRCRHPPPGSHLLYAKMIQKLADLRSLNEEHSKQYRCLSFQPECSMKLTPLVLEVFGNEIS
# Chain of UniProt Q03181 (Q03181 whole entry, looked up): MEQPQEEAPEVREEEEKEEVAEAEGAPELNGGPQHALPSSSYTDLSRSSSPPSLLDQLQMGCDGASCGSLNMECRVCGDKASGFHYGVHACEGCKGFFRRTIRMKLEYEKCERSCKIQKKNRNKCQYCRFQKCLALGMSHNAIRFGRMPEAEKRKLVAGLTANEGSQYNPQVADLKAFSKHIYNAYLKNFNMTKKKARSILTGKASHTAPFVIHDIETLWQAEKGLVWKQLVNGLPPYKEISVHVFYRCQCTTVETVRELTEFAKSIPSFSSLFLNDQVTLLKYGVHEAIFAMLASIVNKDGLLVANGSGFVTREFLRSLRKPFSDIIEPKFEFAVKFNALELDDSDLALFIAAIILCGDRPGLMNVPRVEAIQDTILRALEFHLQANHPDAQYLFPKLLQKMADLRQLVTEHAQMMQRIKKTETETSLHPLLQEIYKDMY
# Chain of UniProt P37231 (P37231 whole entry, looked up): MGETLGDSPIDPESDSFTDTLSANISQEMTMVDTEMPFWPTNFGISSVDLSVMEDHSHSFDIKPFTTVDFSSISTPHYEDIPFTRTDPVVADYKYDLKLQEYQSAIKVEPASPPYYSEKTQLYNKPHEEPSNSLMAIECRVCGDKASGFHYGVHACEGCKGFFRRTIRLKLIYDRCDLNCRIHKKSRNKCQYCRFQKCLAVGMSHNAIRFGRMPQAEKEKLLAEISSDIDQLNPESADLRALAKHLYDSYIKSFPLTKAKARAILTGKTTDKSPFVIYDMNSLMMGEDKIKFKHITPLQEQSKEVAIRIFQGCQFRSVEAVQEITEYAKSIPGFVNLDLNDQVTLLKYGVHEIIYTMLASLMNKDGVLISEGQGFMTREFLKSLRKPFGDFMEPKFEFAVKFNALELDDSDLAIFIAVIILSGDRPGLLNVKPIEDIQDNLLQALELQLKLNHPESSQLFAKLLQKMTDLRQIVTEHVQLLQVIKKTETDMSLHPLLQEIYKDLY
# Chain of UniProt Q96RI1 (Q96RI1 whole entry, looked up): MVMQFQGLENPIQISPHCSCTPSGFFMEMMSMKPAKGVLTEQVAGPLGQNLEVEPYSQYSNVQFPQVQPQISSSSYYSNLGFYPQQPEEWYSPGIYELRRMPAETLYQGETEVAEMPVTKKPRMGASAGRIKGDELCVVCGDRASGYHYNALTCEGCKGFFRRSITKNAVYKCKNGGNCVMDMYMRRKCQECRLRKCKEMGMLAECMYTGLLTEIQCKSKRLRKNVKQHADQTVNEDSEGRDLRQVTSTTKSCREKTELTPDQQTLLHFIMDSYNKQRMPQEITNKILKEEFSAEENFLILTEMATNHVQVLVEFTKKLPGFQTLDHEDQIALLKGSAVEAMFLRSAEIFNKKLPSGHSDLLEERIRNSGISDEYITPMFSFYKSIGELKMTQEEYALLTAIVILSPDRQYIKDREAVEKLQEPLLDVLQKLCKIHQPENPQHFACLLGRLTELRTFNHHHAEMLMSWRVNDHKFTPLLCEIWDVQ
smiles,measurement,setting,value
C=CC(=O)OCCC#N,Potency,[1],"inconclusive: 69 µM [cytotoxic, single point]"
same,Potency,[2],inconclusive: 55.3 µM [activator]
same,Potency,[3]; [18],inconclusive: 62 µM [single point]
same,Potency,[4],active: 34.6 µM
same,Potency,[5],"inconclusive: 11 µM [cytotoxic, full curve]"
same,activation,[6],inconclusive: 21.1% [at 81.1 µM]
O=C(c1ccc(F)cc1)C1CCN(CCn2c(=S)[nH]c3ccccc3c2=O)CC1,Potency,[1],inactive
same,Potency,[2],"inconclusive: 26.8 µM [partial curve, poor fit]"
same,Potency,[4],"inconclusive: 5.96 µM [rising, full curve]"
same,Potency,[5],"inconclusive: 2.98 µM [cytotoxic, full curve, poor fit]"
same,Potency,[7],active: 19.6 µM
same,Potency,[8],"inconclusive: 21.1 µM [cytotoxic, partial curve]"
same,Potency,[6],"inconclusive: 13.3 µM [rising, partial curve]"
same,Potency,[9],"inconclusive: 13.3 µM [cytotoxic, partial curve, poor fit]"
same,Potency,[10],inconclusive: 29.8 µM [partial curve]
same,Potency,[11],"inconclusive: 29.8 µM [rising, single point]"
same,Potency,[12],inconclusive: 26.6 µM [activator]
same,Potency,[13],"inconclusive: 26.6 µM [falling, partial curve]"
same,Potency,[14],"inconclusive: 4.73 µM [rising, full curve]"
same,"activity change, negative = inhibition",[15]; [19],inconclusive: 14.1%
CCCCCCCCCCCCO,Potency,[1],inactive
same,activation,[2],inconclusive: 5.22%
same,"ratio activity, negative = inhibition",[3]; at 81.1 µM (top of the series),inactive: 2.56%
same,"ratio activity, negative = inhibition",[3]; [18],inconclusive: 8.65%
same,Potency,[16],"inconclusive: 0.0879 µM [rising, full curve, poor fit]"
same,Potency,[4],"inconclusive: 42.8 µM [rising, partial curve, poor fit]"
same,"activity change, negative = inhibition",[15]; [19],inconclusive: 26.5%
same,"activity change, negative = inhibition",[15]; at 78.8 µM (top of the series),inactive: 19.2%
COc1cccc2c1C(=O)c1c(O)c3c(c(O)c1C2=O)C[C@@](O)(C(=O)CO)C[C@@H]3O[C@H]1C[C@H](N)[C@H](O)[C@H](C)O1,Potency,[1],active: 13.3 µM and active: 12.2 µM
same,Potency,[2],"inconclusive: 3.01 µM [inhibitor, full curve]"
same,activation,[2],inconclusive: -26.9%
same,Potency,[16],"inconclusive: 2.66 µM [cytotoxic, partial curve]"
same,Potency,[4],inconclusive: 1.93 µM and active: 266 nM
same,Potency,[5],"inconclusive: 691 nM [cytotoxic, full curve] and inconclusive: 18.8 nM [cytotoxic, full curve, poor fit]"
same,Potency,[8],inactive
same,Potency,[6],"inconclusive: 29.8 µM [falling, partial curve]"
same,activation,[6],inconclusive: 1.1%
same,Potency,[9],"inconclusive: 0.0109 µM [cytotoxic, full curve, poor fit]"
same,Potency,[10],active: 1.55 µM and active: 2.98 µM
same,Potency,[17],"inconclusive: 19.5 µM [rising, partial curve]"
same,Potency,[14],"inconclusive: 15 µM [inhibitor, partial curve, poor fit]"
same,activation,[14],inconclusive: -22.2%
CC(O)C#CC(C)O (configuration not stated),Potency,[1],active: 30.3 µM
same,Potency,[2],active: 54.4 µM
same,Potency,[16],"inconclusive: 0.0153 µM [cytotoxic, full curve, poor fit]"
same,Potency,[4],"inconclusive: 76.2 µM [falling, single point]"
same,Potency,[7],inconclusive: 29.4 µM
same,Potency,[8],"inconclusive: 54.4 µM [cytotoxic, single point]"
same,Potency,[10],inconclusive: 61.1 µM [single point]
same,Potency,[14],"inconclusive: 54.4 µM [rising, single point]"
same,Potency,[15]; [19],inconclusive: 61.1 µM [single point]
C#C[C@]1(O)CC[C@H]2[C@@H]3CCc4cc(O)ccc4[C@H]3CC[C@@]21C,Potency,[1],active: 48.2 µM
same,activation,[2],inconclusive: -10.4%
same,Potency,[3]; [18],"inconclusive: 54.6 µM and inconclusive: 54.9 µM [inhibitor, single point]"
same,Potency,[16],"inconclusive: 38.6 µM [cytotoxic, partial curve, poor fit]"
same,Potency,[4],"inconclusive: 7.7 µM [rising, full curve, poor fit]"
same,activation,[4],inconclusive: -1.37%
same,Potency,[7],inconclusive: 43.3 µM and inactive
same,Potency,[8],"inconclusive: 54.6 µM [cytotoxic, single point]"
same,"viability change, negative = cytotoxic",[9],inconclusive: -30.1% [cytotoxic]
same,Potency,[17],"inconclusive: 48.6 µM [cytotoxic, partial curve, poor fit]"
same,"activity change, negative = cytotoxicity",[13],inconclusive: -32.2%
